Out of some 310,000 compounds screened, about 14,000 (4.5%) showed an effect of 50% or more. Effects have a minus sign here. This is one part of the list.
Each compound was assayed against human ether-à-go-go-related gene (hERG) potassium channel (human, UniProt Q12809) (assay: primary screen, population patch clamp on CHO cells stably expressing hERG).
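Note: peak tail current of the secondary pulse compared with the same well before compound.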

Sequence of human ether-à-go-go-related gene (hERG) potassium channel (Q12809 whole entry, looked up): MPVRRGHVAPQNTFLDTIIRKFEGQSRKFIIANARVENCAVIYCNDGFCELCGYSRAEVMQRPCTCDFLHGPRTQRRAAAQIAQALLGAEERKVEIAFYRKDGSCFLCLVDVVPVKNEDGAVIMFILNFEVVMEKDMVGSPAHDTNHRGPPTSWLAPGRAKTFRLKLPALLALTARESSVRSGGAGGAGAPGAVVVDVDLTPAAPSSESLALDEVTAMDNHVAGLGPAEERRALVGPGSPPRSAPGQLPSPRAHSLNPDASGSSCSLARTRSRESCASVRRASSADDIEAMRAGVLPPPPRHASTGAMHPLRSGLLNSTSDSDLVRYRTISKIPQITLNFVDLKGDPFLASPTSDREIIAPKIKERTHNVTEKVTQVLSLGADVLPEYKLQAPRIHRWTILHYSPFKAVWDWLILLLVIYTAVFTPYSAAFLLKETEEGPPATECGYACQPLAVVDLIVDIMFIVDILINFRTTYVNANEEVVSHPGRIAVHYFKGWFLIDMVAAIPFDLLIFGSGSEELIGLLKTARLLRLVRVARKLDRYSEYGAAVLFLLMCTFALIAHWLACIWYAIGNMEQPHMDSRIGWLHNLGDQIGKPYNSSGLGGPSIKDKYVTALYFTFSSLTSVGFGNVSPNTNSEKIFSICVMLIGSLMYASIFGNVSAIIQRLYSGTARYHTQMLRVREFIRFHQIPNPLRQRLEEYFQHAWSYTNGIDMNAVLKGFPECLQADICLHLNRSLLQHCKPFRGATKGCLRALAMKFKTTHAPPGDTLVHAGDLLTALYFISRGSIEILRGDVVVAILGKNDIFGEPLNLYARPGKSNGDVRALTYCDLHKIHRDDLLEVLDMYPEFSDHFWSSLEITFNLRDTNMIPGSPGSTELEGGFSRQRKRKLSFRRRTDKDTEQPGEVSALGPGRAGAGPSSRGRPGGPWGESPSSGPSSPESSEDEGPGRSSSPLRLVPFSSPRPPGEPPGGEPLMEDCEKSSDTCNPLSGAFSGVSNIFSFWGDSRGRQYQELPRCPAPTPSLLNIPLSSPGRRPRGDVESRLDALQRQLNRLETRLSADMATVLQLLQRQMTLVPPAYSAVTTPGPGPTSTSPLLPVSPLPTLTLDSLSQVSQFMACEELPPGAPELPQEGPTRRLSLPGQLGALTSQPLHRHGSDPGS

Row | SMILES | hERG current change (%, negative = inhibition) at 10uM [%]
1 | O=C1CC(Nc2ccc(N3CCOCC3)cc2)C(=O)N1C1CCCCC1 (centres unmarked) | 1.12
2 | COc1ccccc1/C=C/C1(C(=O)NC2CCCC2)CC(=O)N1c1ccc(F)cc1 (centres unmarked) | 7.84
3 | CCOC(=O)c1cc(-c2ccccc2)n(CC(=O)Nc2cc(OC)cc(OC)c2)c1C | 10.8
4 | C=CCn1nc(-c2ccccc2)c(N2CCCCC2)cc1=O | -14.2
5 | Cc1cc(OCCCCNC(C)C)cc(C(C)C)c1.O=C(O)C(=O)O | -29.6
6 | CCOC(=O)C1(Cc2ccccc2)C(=O)N(CCCN(C)C)c2ccccc21.Cl (centres unmarked) | 3.31
7 | COc1cc(OC)cc(C(=O)NC(=S)Nc2ccc(NC(=O)c3ccco3)cc2)c1 | -24.6
8 | CCCCC(=O)C1CCN(Cc2ccccc2)CC1 | -34.5
9 | O=C(CCc1nc(-c2ccccc2)no1)NCc1ccccc1CN1CCOCC1 | -10.5
10 | Cc1nc2ccc([N+](=O)[O-])cc2c(=O)n1Cc1ccc(Cl)cc1 | -4.6
11 | O=C(/C=C/c1ccco1)NC(=S)Nc1cccc([N+](=O)[O-])c1 | 9.53
12 | CCc1ccc(C(=O)COC(=O)c2cnc(C)cn2)cc1 | -3.49
13 | CC(C)COP(=O)(OCC(C)C)C(O)c1cccnc1 (centres unmarked) | 1.7
14 | COc1cccc(C(C)NC(=S)NCc2ccc(Cl)cc2)c1 (centres unmarked) | 11.1
15 | O=C1CCCC(O)=C1N=Nc1c(Cl)cc(Cl)cc1Cl | 7.14
16 | Cc1ccc(N(C(C)C(=O)NCc2ccncc2)S(C)(=O)=O)cc1C (centres unmarked) | 11.7
17 | Cc1[nH]nc(N=CC2=C(O)CC(c3ccco3)CC2=O)c1-c1ccccc1 (centres unmarked) | 13.7
18 | Cc1ccc(NCCC#N)cc1C | 0.785
19 | CC1CCN(c2ccc(NC(=O)C3CCCN3S(=O)(=O)c3ccc(F)cc3)cc2)CC1 (centres unmarked) | -14.2
20 | CCOC(=O)Cn1c(=O)oc2cc(S(=O)(=O)NCC3CCCO3)ccc21 (centres unmarked) | -5.92
21 | CC(c1ccccc1)N1CC(C(=O)N2CCN(c3ccccc3)CC2)CC1=O (centres unmarked) | -27.2
22 | COc1ccc(NC(=O)CCc2nc3ccccc3[nH]2)cc1 | 8.56

Row | SMILES | hERG current change (%, negative = inhibition) at 10uM [%]
23 | CC(C)C(c1nnnn1C1CCCC1)N1CCCCC1.Cl (centres unmarked) | 11.9
24 | CCC(=O)N1CCc2cc(Br)cc(S(=O)(=O)CC(=O)OC)c21 | 10.6
25 | CN(C)c1ccc(C(=O)/C=C/c2ccco2)cc1 | 14.9
26 | COc1ccc(-n2nc(C(=O)NCC(=O)N3CCOCC3)c3ccccc3c2=O)cc1OC | -0.283
27 | COc1ccc(-c2csc(Nc3ncccc3C)n2)cc1 | -7.45
28 | Cc1ccc2c(CNCc3ccco3)cc(=O)oc2c1 | -16.5
29 | Cc1c(Cl)cn2c(=O)cc(CN(C)Cc3nc4ccccc4c(=O)[nH]3)nc2c1Cl | -44.2
30 | Cc1ccc(NC(=O)c2nc[nH]c2C(=O)N2CCN(C(=O)OC(C)(C)C)CC2)cc1 | -22.5
31 | COc1ccccc1-c1cc(C(=O)N/N=C\c2cn(C)nc2C)c2ccccc2n1 | -15.2
32 | O=C1NC(c2cccs2)C(C(=O)c2ccccc2)C(O)(C(F)(F)F)N1 (centres unmarked) | 8
33 | CCOC(=O)C1C(c2ccc(OC)c(OC)c2)c2c([nH][nH]c2=O)CC1(C)O (centres unmarked) | 3.61
34 | Cc1ccc(C)c(NC(=O)Cc2csc(-c3ccccc3)n2)c1 | -3.58
35 | Cn1cc(Br)c(C(=O)N/N=C/c2cccc(OC3CSC3)c2)n1 | -2.36
36 | CCN(CC)S(=O)(=O)c1cccc(-n2c(O)c(C=Nc3ccccc3C(=O)O)c3ccccc3c2=O)c1 | 0.00558
37 | CC(=O)c1ccc(NS(=O)(=O)c2ccc3ccccc3c2)cc1 | -0.55
38 | CCOP(=O)(c1ccc(N(C)C)cc1)C(O)c1c(Cl)cccc1Cl (centres unmarked) | -3.45
39 | O=C(CSc1nnc(CNC(=O)c2c(F)cccc2F)o1)NCc1ccc(F)cc1 | 5.93
40 | CCCOc1ccccc1OCC(=O)N1CCN(S(=O)(=O)c2ccc(Cl)cc2)CC1 | -17
41 | Cn1cccc1/C=N/NC(=O)c1ccncc1 | 8.02
42 | CC(=N\NC(=O)c1cc(Br)ccc1O)/C(=N/O)C(=O)Nc1ccccc1 | 48.4
43 | COC(=O)CSc1nnc2cc(C)c3ccccc3n12 | -18.6
44 | CCOc1ccccc1NC(=O)Cn1c(=O)oc2ccccc21 | 10.7
